Assays:
Nos2 gene = assay: Expression level of Nos2 gene in intestinal (colon) tissues of MCAO mice, real-time PCR; type: in vivo; conditions: sampled 24 hours after stroke
Method: At different time points (3 hours, 6 hours, 12 hours, 24 hours, 3 days, and 7 days, where the start time of timing is the time at which the occlusion suture was removed) after the cerebral stroke, the colon tissues of mice were rapidly collected and cryopreserved at −80° C. for determining the relative expression level of Nos2 gene. The specific steps were as follows. […] The respective Gapdh expression levels were taken as internal references.

nitrate = assay: Nitrate concentration in cecal mucus extract of MCAO mice, colorimetric kit; conditions: sampled 24 hours after stroke
D-Lac, LBP, LPS = assay: Levels of intestinal barrier markers in mouse serum, ELISA; type: in vivo, mice; conditions: AG interventions before or after modeling; FIGS. 11A-11E
Method: (§1) After assessment of mNSS, blood collecting was performed on the mice. Blood collection methods comprised orbital blood collection and postcaval vein blood collection. Before testing, the mouse serum samples were stored at −80° C.

[1] = tested on: mouse middle cerebral artery occlusion (MCAO) model; assay: Nissl staining of frozen sections of brain tissues, neuronal loss; type: in vivo, mice; conditions: Post-AG group; brains harvested 24 hours after stroke; FIGS. 10A-10B
Method: (1) Brain harvesting: the mice in each group (SHAM group, MCAO group, and Post-AG group) were sacrificed to harvest their brains after evaluating mNSS 24 hours after stroke.
(2) Immobilization: after the mice were anesthetized, the thoracic cavity was opened to fully expose the heart, the right atrial appendage was cut open, and the heart was perfused with frozen normal saline for 10 min, and then with frozen 4% paraformaldehyde (PFA) for 10 min. Tissues were then immobilized in PFA for 24 h, and in 30% PFA sucrose for 48 h. After sufficient dehydration, the brain tissues completely sunk to the bottom, and were taken out.
(3) Embedding: the brain tissues were excised and placed in a frozen section embedding mold, embedded in conventional OCT, frozen in liquid nitrogen, and stored in a refrigerator at −80° C.
(4) Sectioning: the temperature of a freezing microtome was adjusted to −20° C. After reaching the temperature, the specimens were taken out, and the brain tissues was taken from 2.0 mm to 4.0 mm behind the bregma (comprising the entire thalamus tissue), and successively cut into coronal sections with a thickness of 5 μm. The sections were flattened with a fine brush, placed on a glass slide, and stored in a refrigerator at −20° C.
(5) Nissl staining: the brain sections were immersed in the Nissl staining solution for 5 min and washed twice with distilled water. […]

[2] = tested on: mouse middle cerebral artery occlusion (MCAO) model; assay: Mouse modified neurological severity score (mNSS); type: in vivo, mice; conditions: AG interventions before and after modeling; 24 hours after cerebral stroke; FIG. 9
Method: This operation was performed on the MCAO group, Post-AG group and Pre-AG group 24 hours after cerebral stroke. Neurobehavioral testing was performed by two testers blinded to the experimental grouping. The mNSS ranges from 0 to 14, with 0 representing normal and 14 representing the highest neurological severity. The scoring system can comprehensively assess neurological functions, comprising motor, sensory, balance and reflex tests. (1) Motor test: the tail of the mouse was lifted to assess the degree of bending and twisting of the limbs (0-3 points); the walking posture on a flat surface was assessed (0-3 points). (2)Balance test: the mouse was placed on a beam. Neurological impairment was mainly assessed based on whether the mouse could keep balance on the beam, dangle their limbs from the beam, and move smoothly through the beam (0-6 points). (3) Sensory and reflex test: auricle reflex and corneal reflex were tested respectively (0-2 points).

IL-6, TNF-α = assay: Levels of inflammatory factors in mouse serum, ELISA; type: in vivo, mice; conditions: AG intervention after modeling; FIGS. 11A-11E
Method: as §1

[3] = tested on: Tnf, Il17, Ifng, Il1b, Cxcl2, Kc, Il6; assay: Expression level of proinflammatory cytokines in intestinal (colon) tissues of MCAO mice; type: in vivo; conditions: AG intervention before or after modeling, colon tissues 24 hours after stroke, FIGS. 7A-7J
Method: (§2) At different time points (3 hours, 6 hours, 12 hours, 24 hours, 3 days, and 7 days, where the start time of timing is the time at which the occlusion suture was removed) after the cerebral stroke, the colon tissues of mice were rapidly collected and cryopreserved at −80° C. for determining the relative expression level of Nos2 gene. The specific steps were as follows.
(§3) (4) 2 μl of cDNA added in 20 μl volume was taken as a template (at a concentration of 50-100 ng/μl), and upstream and downstream primers as set forth in SEQ ID NOs: 1-2 and 23-28 were added at a final concentration of 250 nM to carry out SYBR Green (Takara Bio) real-time PCR, with a reaction system shown in Table 1:
(§4) (5) data were extracted with the ViiA 7 real-time PCR system (Applied Biosystems), and data analysis was performed by using the comparative Ct method. The respective Gapdh expression levels were taken as internal references.
(§5) The expression levels of Tjp1, Ocln, Cldn2, Tnf Il17, Ifng, Il1b, Cxcl2, Kc, and Il6 were detected according to the method of Example 4. Tjp1, Ocln, and Cldn2 were intestinal barrier-related genes; Tjp1 was a tight junction protein 1; Ocln was Occludin; Cldn2 was Claudin-2; Tnf was a tumor necrosis factor; Il17 was interleukin 17; Ifng interferon γ; Il1b was Interleukin 1β; Il6 was interleukin 6; and Kc and Cxcl2 were chemokines. Samples were taken 24 hours after cerebral stroke. The primer sequences for Tjp1, Ocln, Cldn2, Tnf Il17, Ifng, Il1b, Cxcl2, Kc, and Il6 were as set forth in SEQ ID NOs: 3-22.

Tjp1, Ocln, Cldn2 = assay: Expression level of intestinal barrier-related genes in intestinal tissues of MCAO mice; type: in vivo; conditions: AG intervention before or after modeling, samples 24 hours after stroke, FIGS. 7A-7J
Method: as §2, §3, §4, §5

Nox1 and Duox2 genes = assay: Expression levels of Nox1 and Duox2 genes in intestinal tissues of MCAO mice, real-time PCR; type: in vivo; conditions: AG 100 mg/kg gavage once 1 hour after cerebral stroke, sampled 24 hours after stroke
[4] = 0.01-1000 mg/kg gavage once 1 hour after stroke, compared to MCAO group

Cc1ccnc(N)c1 [2-amino-4-methylpyridine (AMP), 2-amino-4-methylpyridine]
reduces: expression level of Nos2 gene in the intestinal tissues (Nos2 gene; [4]) | nitrate concentration in the cecal mucus extract (nitrate; [4])

[H]/N=C(\C)NCc1cccc(CN)c1 [1400W]
reduces: expression level of Nos2 gene in the intestinal tissues (Nos2 gene; [4]) | nitrate concentration in the cecal mucus extract (nitrate; [4])

[H]/N=C(/C)NCCCC[C@H](N)C(=O)O [L-NIL]
reduces: expression level of Nos2 gene in the intestinal tissues (Nos2 gene; [4]) | nitrate concentration in the cecal mucus extract (nitrate; [4])

N=C(N)NN [aminoguanidine (AG), aminoguanidine]
significantly improved: neurological deficit (mNSS) [2]
significantly increase: expression level of Ocln gene (Tjp1, Ocln, Cldn2) | expression level of Tjp1 gene (Tjp1, Ocln, Cldn2)
significantly reduces: expression level of Nos2 gene in the intestinal tissues (Nos2 gene; AG 100 mg/kg gavage once 1 hour after cerebral stroke, FIG. 5A) | nitrate concentration in the cecal mucus extract (nitrate; AG 100 mg/kg gavage once 1 hour after cerebral stroke, FIG. 6) | expression level of Nox1 gene in the intestinal tissues (Nox1 and Duox2 genes; FIG. 5B) | expression level of Duox2 gene in the intestinal tissues (Nox1 and Duox2 genes; FIG. 5C)
significantly decreases: expression level of Cldn2 gene (Tjp1, Ocln, Cldn2)
significantly decrease: expression level of Cxcl2 [3] | expression level of Ifng [3] | expression level of Il1b [3] | expression level of Il6 [3] | expression level of Il17 [3] | expression level of Kc [3] | expression level of Tnf [3]
significantly reduce: level of D-Lac in the mouse serum (D-Lac, LBP, LPS) | level of LBP in the mouse serum (D-Lac, LBP, LPS) | level of LPS in the mouse serum (D-Lac, LBP, LPS) | neuronal loss in the hippocampus regions (Nissl staining) [1] | level of IL-6 in the mouse serum (IL-6, TNF-α) | level of TNF-α in the mouse serum (IL-6, TNF-α)

— patent publication US20220401386A1, “USE OF NITRIC OXIDE SYNTHASE PATHWAY INHIBITOR IN PERPARATION OF MEDICINE” (ZHUJIANG HOSPITAL, SOUTHERN MEDICAL UNIVERSITY, priority 2019, published 2022)
